Measurements published in the supplement of paper PMC4723716.
± gives the uncertainty stated by the source. Whole data set: some 9,900 compounds, median “viability index relative to DMSO control” near 1, cut for the lowest 2% near 0.85. This is one part of the list.

system: Plasmodium falciparum NF54 stage V gametocytes; test: viability index relative to DMSO control (fraction); higher = less gametocyte killing; conditions: 2.5 µM, library set: Broad Institute DOS, incubation time: 72 h
Summary of the method: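 Viability index is the count of red-stained particles in a well divided by the plate mean of solvent-only wells. Particles of 20–70 µm2 were counted in one imaged field per well after one to two hours with 3 µl of 2.5 µM MitoTracker Red CMXRos and 0.13% saponin. Before staining, P. falciparum NF54 stage V gametocytes in serum-free medium (0.75% gametocytemia, 1.25% hematocrit, 10 µl, 1,536-well plates) were kept with compound at 2.5 µM for 72 hr at 37°C under low oxygen.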

Structure (SMILES) | viability index
COCC(=O)N1CC[C@@]2(CC1)CN[C@H](CO)c1c2c2ccc(OC)cc2n1C | 1.03 ± 0.052
CCCNC(=O)N1[C@@H]2CNC[C@H]1[C@@H]2c1ccc(-c2ccccc2)cc1 | 0.926 ± 0.042
CCS(=O)(=O)Nc1ccc2c(c1)C(=O)N(C)[C@H]1CC[C@@H](CC(=O)NC3CCCCC3)O[C@H]1CO2 | 0.985 ± 0.018
N#C[C@@H]1[C@H](c2ccccc2-c2cccc(F)c2)[C@@H](CO)N1C(=O)C1CC1 | 1.1 ± 0.022
CCCNC(=O)N(C)C[C@H]1Oc2ncc(C#CC3CCCCC3)cc2C(=O)N([C@H](C)CO)C[C@H]1C | 0.975 ± 0.057
CC(C)NC(=O)NCC[C@@H]1CC[C@@H](NS(=O)(=O)c2ccc(Oc3ccccc3)cc2)[C@H](CO)O1 | 1.071 ± 0.0073
N#C[C@@H]1[C@H](c2ccccc2C2=CCCCC2)[C@@H](CO)N1S(=O)(=O)c1ccccc1 | 1.16 ± 0.063
N#C[C@H]1[C@H](c2ccc(C#Cc3ccc(F)cc3)cc2)[C@H](CO)N1C(=O)Cc1ccncc1 | 1.02 ± 0.03
CCCNC(=O)N1C[C@H](O)COC[C@@H]2O[C@@H](CC(=O)OC)CC[C@H]21 | 1.05 ± 0.024
COCC(=O)N1[C@@H](CO)[C@@H](c2ccc(-c3ccccc3OC)cc2)C12CN(C(C)=O)C2 | 1.09 ± 0.092
CCS(=O)(=O)Nc1ccc2c(c1)C(=O)N(C)[C@@H]1CC[C@@H](CC(=O)NCc3ccccc3F)O[C@H]1CO2 | 1.13 ± 0.043
N#C[C@H]1[C@@H](c2ccc(C3=CCCCC3)cc2)[C@H](CO)N1C(=O)CN1CCOCC1 | 1.11 ± 0.052
COc1ccc2c3c([C@H](CO)N(C[C@]33CN(C3)S(=O)(=O)c3cn(C)cn3)C(=O)Nc3ccc(F)cc3)n(C)c2c1 | 1.114 ± 0.0043
O=C(Cc1cccnc1)N1CC(=O)N2[C@H](CO)[C@@H](c3ccc(/C=C/c4ccccc4)cc3)[C@@H]2C1 | 0.981 ± 0.018
N#C[C@H]1[C@@H](c2ccc(C3=CCCC3)cc2)[C@@H](CO)N1C(=O)c1ccccn1 | 1.07 ± 0.067
C[C@@H]1CCCCO[C@@H](CN(C)C(=O)Nc2ccccc2)[C@@H](C)CN([C@H](C)CO)C(=O)c2cc(NC(=O)Nc3ccccc3)ccc2O1 | 1.13 ± 0.075
COc1ccc(CN2C[C@H](O)COC[C@@H]3O[C@H](CC(=O)N(C)C)CC[C@H]32)cc1 | 1.08 ± 0.1
O=C(C[C@@H]1CC[C@@H]2[C@H](COC[C@@H](O)CN2C(=O)c2ccc(F)cc2)O1)N1CCCCC1 | 1.057 ± 0.0034
CO[C@@H]1CC[C@H]2CCOc3ccc(C#N)cc3C(=O)N(C)C[C@H](c3ccccc3)CC(=O)N(C)C[C@H]1O2 | 1.02 ± 0.04
CCC(=O)Nc1ccc2c(c1)OC[C@@H](C)N(Cc1ccccc1)C[C@H](C)[C@H](OC)CN(C)C2=O | 1.04 ± 0.032
